{"source": "paper PMC12040169", "about": "(PLOS Biology, 2025)", "note": "The list shows a part of the results.", "data": [{"system": "T1, C. trachomatis L2/434/Bu expressing GFP (CTL2-GFP)", "T1 construct": "L2/434/Bu GFP intracellular growth in HeLa cells", "design": "species or system HeLa; C. trachomatis total inclusion area by high-content imaging, normalised to DMSO", "settings": "total inclusion area; 28.5 h, 10 µM; inhibitor", "in_short": "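Host cell viability was gauged from Hoechst-stained nuclei counts, while chlamydial growth was taken from total inclusion area and inclusion number per well. Cells were fixed and imaged by high-content microscopy once bulk GFP and resorufin fluorescence had been measured.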", "values": [{"compound": "O=C(O)C[C@@H]1CCN(C(=O)c2ccco2)C[C@@H]1CC1=NCCc2cc(F)ccc21", "note": "[CBK289166]", "% of control remaining": 113.737}, {"compound": "CCCn1c(C)cc2cc(NC(=O)Cn3cc(C)nn3)ccc21", "note": "[CBK281548]", "% of control remaining": 86.7036}, {"compound": "CN1CCN(c2ccc(-c3ccc(Cl)cc3)cn2)CC1", "note": "[CBK036945]", "% of control remaining": 79.8107}, {"compound": "Cl.Nc1ncc([C@@H]2O[C@H](CO)[C@H](O)C2O)c(=O)[nH]1", "note": "(some centres unmarked) [CBK201205]", "% of control remaining": 100.583}, {"compound": "CC(C)Nc1nc2ccccc2nc1SCCN(C)C", "note": "[CBK103672]", "% of control remaining": 72.432}, {"compound": "CCc1nn(CC(=O)N(C)C)c(=O)c2cc3sc(C)cc3n12", "note": "[CBK284102]", "% of control remaining": 72.3931}, {"compound": "CC(=O)N1CCC[C@H]2NC(=O)CNC(=O)C3(C/C=C/C[C@H]21)CCN(CC1CCC1)CC3", "note": "[CBK292129]", "% of control remaining": 135.247}, {"compound": "O=C(O)C1C2CCC(O2)C1C(=O)Nc1ccc2c(c1)OCCO2", "note": "(centres unmarked) [CBK263677]", "% of control remaining": 96.3304}, {"compound": "COc1ccc(S(=O)(=O)NCCNC(=O)c2cc(-c3cccnc3)cnc2NCc2ccc3c(c2)OCO3)cc1", "note": "[CBK076379]", "% of control remaining": 98.0052}, {"compound": "C1=CC2CC1CC2CN1CCN(Cc2cccnc2)CC1", "note": "(centres unmarked) [CBK027284]", "% of control remaining": 108.329}, {"compound": "CCOC(=O)c1c(C)nc2ccccc2c1O", "note": "[CBK153666]", "% of control remaining": 88.0859}, {"compound": "Cc1ccc(N2CCN(C3=NC(=O)/C(=C\\c4ccc(O)c([N+](=O)[O-])c4)S3)CC2)cc1", "note": "[CBK264347]", "% of control remaining": 120.366}, {"compound": "C#CCOC(=O)Nc1cnc(N2CCOCC2)c(C(F)(F)F)c1", "note": "[CBK019679]", "% of control remaining": 58.1796}, {"compound": "COc1cc(Nc2cc(-c3ccco3)ncn2)cc(OC)c1OC", "note": "[CBK090706]", "% of control remaining": 95.005}, {"compound": "CC(Nc1nc(-c2ccc([N+](=O)[O-])cc2)nc2ccccc12)c1ccccc1", "note": "(centres unmarked) [CBK264767]", "% of control remaining": 113.795}, {"compound": "O=C(CN1C(=O)[C@@H]2CCCN2c2ncccc21)NC(c1ccccc1)c1ccccc1", "note": "[CBK286205]", "% of control remaining": 116.88}, {"compound": "O=C(Cc1cc(Cl)ccc1C(F)(F)F)NCCc1c[nH]c2ccc(Cl)cc12", "note": "[CBK159759]", "% of control remaining": 65.4161}, {"compound": "CCOC(=O)C(=O)N(C)c1c(CC)nc2c(OCc3ccccc3)cccn12", "note": "[CBK147879]", "% of control remaining": 105.623}, {"compound": "C=CCN(C)C(=O)[C@H]1C[C@@H](O)[C@H](O)[C@@H]2N=C(Nc3ccc(OC)cc3)S[C@@H]21", "note": "[CBK288947]", "% of control remaining": 105.273}, {"compound": "O=C(CSc1ccc(Cl)cc1)Nc1cccc(-c2nc3ncccc3o2)c1", "note": "[CBK264989]", "% of control remaining": 99.5525}, {"compound": "O=C(Cn1c(-c2cncs2)nc2ccccc21)Nc1ccc(C(=O)N2CCCCC2)cc1", "note": "[CBK269439]", "% of control remaining": 102.444}, {"compound": "Cc1cccc(Cl)c1OCC(O)CNCCc1ccccc1", "note": "(centres unmarked) [CBK003076]", "% of control remaining": 1.408}, {"compound": "O=C(c1cccnc1)N1CCN(S(=O)(=O)c2ccc(F)cc2)CC1", "note": "[CBK264210]", "% of control remaining": 104.164}, {"compound": "COc1ccccc1Cc1cccc(C2CCN(C(=O)c3ccccc3)CC2)n1", "note": "[CBK286236]", "% of control remaining": 97.9719}, {"compound": "O=C(Nc1ccc(Cl)cc1)Nc1cccc(C(=O)O)c1", "note": "[CBK269404]", "% of control remaining": 66.8155}, {"compound": "O=C(C1CC1)N1CC2CN(Cc3ccccc3)CC2C12CCOCC2", "note": "(centres unmarked) [CBK283055]", "% of control remaining": 96.924}, {"compound": "CC(=O)Nc1ccc(Nc2cc(-c3ccc(Cl)cc3)ncn2)cc1", "note": "[CBK090720]", "% of control remaining": 97.4345}, {"compound": "Cc1cccc(-c2ncc(NC(=O)CCOc3ccccc3)nc2-c2ccc(N)cc2)c1", "note": "[CBK036655]", "% of control remaining": 85.128}, {"compound": "Oc1c(-c2cccc(C(F)(F)F)c2)cnc2cccnc12", "note": "[CBK081290]", "% of control remaining": 88.3877}, {"compound": "Cc1csc(-c2cnc(N3CCOCC3)c3nccn23)c1", "note": "[CBK091287]", "% of control remaining": 126.271}, {"compound": "CN(C)CCCNC(=O)C1CCCN(c2nc3c(-c4ccccc4)csc3c(=O)[nH]2)C1", "note": "(centres unmarked) [CBK215504]", "% of control remaining": 117.997}, {"compound": "COc1cccc2cc(C(=O)NCc3c(F)cccc3F)oc12", "note": "[CBK149794]", "% of control remaining": 77.6599}, {"compound": "Cc1ccc(S(=O)(=O)N2CCOCC2)cc1-c1cnc(N)c(-c2ccc(O)cc2)n1", "note": "[CBK122519]", "% of control remaining": 68.9833}, {"compound": "O=C(NCCc1ccc(O)cc1)c1ccc2nc[nH]c2c1", "note": "[CBK153323]", "% of control remaining": 83.3453}, {"compound": "Cc1nn(C)cc1-c1cncn1Cc1cccc(OC(C)C)c1", "note": "[CBK281484]", "% of control remaining": 91.6592}, {"compound": "Cc1ccc(C(=O)NCc2cccnc2N(C)C2CCCCC2)cn1", "note": "[CBK306514]", "% of control remaining": 128.029}, {"compound": "Cn1cncc1CN(Cc1ccccn1)Cc1ccccc1Cl", "note": "[CBK282129]", "% of control remaining": 89.0957}, {"compound": "CCC(CC)C(=O)N(C)c1c(C)nc2ccc(C(=O)NCCc3c[nH]c4ccccc34)cn12", "note": "[CBK146495]", "% of control remaining": 123.315}, {"compound": "COc1ccc(-c2c(-c3ccc(OCc4cnn(-c5ccccc5)c4)c(C)c3O)n[nH]c2C)cc1", "note": "[CBK265006]", "% of control remaining": 93.1013}, {"compound": "Brc1cccc(NN=C2CCCC2)n1", "note": "[CBK006748]", "% of control remaining": 74.8968}, {"compound": "Cc1nc(CC(=O)Nc2ccc(N3CCOCC3)cn2)cs1", "note": "[CBK305251]", "% of control remaining": 111.266}, {"compound": "CN(C)c1ccc(CNC(=O)Cn2nc(C(=O)O)c3ccccc3c2=O)cc1", "note": "[CBK295330]", "% of control remaining": 103.9}, {"compound": "COCCn1cnnc1CN(C)C(=O)NC(C)c1nc2ccccc2[nH]1", "note": "(centres unmarked) [CBK307155]", "% of control remaining": 64.2662}, {"compound": "Cc1nc(C2CN(Cc3ccc(Cl)c4cccnc34)CCO2)no1", "note": "(centres unmarked) [CBK305384]", "% of control remaining": 65.7062}, {"compound": "Cc1ccc(C2CC(=O)C(=CNCCN3CCN(C(=S)Nc4ccccc4)CC3)C(=O)C2)cc1", "note": "(centres unmarked) [CBK263665]", "% of control remaining": 98.3502}, {"compound": "O=C(Nc1ccc2oc(-c3cccnc3)nc2c1)c1ccc(-c2ccccc2OC(F)(F)F)o1", "note": "[CBK263872]", "% of control remaining": 87.4186}, {"compound": "CCc1c(C)nc2n(c1=O)C(CS(=O)(=O)c1ccccc1)CS2", "note": "(centres unmarked) [CBK268949]", "% of control remaining": 97.7477}, {"compound": "Cc1nc2c(c(=O)[nH]1)CN(C1CCCCC1)CC2", "note": "[CBK282416]", "% of control remaining": 90.5542}, {"compound": "S=c1[nH]ccn1Cc1cccs1", "note": "[CBK008454]", "% of control remaining": 96.1446}, {"compound": "COc1ccc([C@@]23CC[C@@H](NC(=O)Nc4cccc(C(F)(F)F)c4F)C[C@@H]2CN(C)C3)cc1OC", "note": "[CBK063195A]", "% of control remaining": 74.2053}]}]}
